Experiment in all cases: Primary Screen for Target Class Profiling of Small Molecule Inhibitors of Methyltransferases
The target of assay [1] is Glycine N-methyltransferase (Homo sapiens) (UniProt Q14749). As to conditions: purified enzyme, MTase-Glo SAH luminescence; measured here: GNMT inhibition; at 40 µM; stronger effect = lower value. The method, boiled down: (§1)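 Each enzyme was reacted with SAM and its substrate, with compounds tested once at 40 uM; SAH formed was read by MTase-Glo luminescence.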
Assay [2] addresses Guanidinoacetate N-methyltransferase (Homo sapiens) (UniProt Q14353). As to conditions: purified enzyme, MTase-Glo SAH luminescence; measured here: GAMT inhibition; at 40 µM; stronger effect = lower value. The method, boiled down:
as §1

Assay [3] concerns the target Histamine N-methyltransferase (Homo sapiens) (UniProt P50135). As to conditions: purified enzyme, MTase-Glo SAH luminescence; measured here: HNMT inhibition; at 40 µM; stronger effect = lower value. The essentials: as §1
Assay [4] deals with Nicotinamide N-methyltransferase (Homo sapiens) (UniProt P40261). As to conditions: purified enzyme, MTase-Glo SAH luminescence; measured here: NNMT inhibition; at 40 µM; stronger effect = lower value. The essentials:
as §1

The target in assay [5] is Phenylethanolamine N-methyltransferase (Homo sapiens) (UniProt P11086). As to conditions: purified enzyme, MTase-Glo SAH luminescence; measured here: PNMT inhibition; at 40 µM; stronger effect = lower value. The essentials: as §1

Our source for the activity change, negative = inhibition values is PubChem BioAssay AID1745853 (National Center for Advancing Translational Sciences (NCATS), 2022).

Some of the results follow. Further columns of the screen follow, without active or inactive calls.
% is scaled to controls: 0 for no effect and ±100 for the full control effect.

`CCN(CC)CCOc1ccc(/C(=C(\Cl)c2ccccc2)c2ccccc2)cc1`: the activity change, negative = inhibition was 1.93% in assay [1]; 7.49% in assay [2]; -19.5% in assay [3]; -13.5% in assay [4]; 2.14% in assay [5].
For `CCc1cccc(N2C(=O)c3cc(-c4ccccc4)nn3CC2(C)C(=O)NCc2ccccc2)c1` (configuration not stated), in that order: 1.6%, 8.23%, 0.955%, 2.41% and -3.19%.
On to `Cc1noc(C)c1S(=O)(=O)N1CCC2(CC1)CC1C(=O)NCCN1C2` (configuration not stated), for which the activity change, negative = inhibition is -3.84% in assay [1]; -1.33% in assay [2]; -2.32% in assay [3]; -5.26% in assay [4]; -0.605% in assay [5].
For `C[C@@H]1O[C@@H](O[C@@H]2[C@@H](O[C@@H]3O[C@@H](C)[C@H](O[C@@H]4OC[C@H](O)[C@H](O[C@@H]5OC[C@@H](O)[C@H](O)[C@H]5O)[C@H]4O)[C@@H](O[C@@H]4OC[C@](O)(CO)[C@H]4O)[C@H]3O)[C@H](OC(=O)[C@]34CCC(C)(C)C[C@H]3C3=CCC5[C@@]6(C)C[C@H](O)[C@H](O[C@@H]7O[C@H](CO[C@@H]8OC[C@H](O)[C@H](O)[C@H]8O)[C@@H](O)[C@H](O)[C@H]7O)C(C)(C)C6CC[C@@]5(C)[C@]3(C)C[C@H]4O)OC[C@H]2O)[C@H](O)[C@H](O)[C@H]1O` (some centres not stated), in that order: 2.94%, 16.9%, 5.68%, 6.03% and 11.6%.
For `CCCCNC(=O)[C@H]1CCC[C@H]1NC(=O)c1ccncc1`, in that order: 0.325%, 0.932%, 2.1%, -7.08% and 11.7%.
Turning to `COc1ccc(C(=O)Cn2nc3n(Cc4ccc(C)cc4)c(=O)c4ccccc4n3c2=O)cc1OC`, the activity change, negative = inhibition in assay [1] worked out at 5.21%; in assay [2], 0.874%; in assay [3], 3.93%; in assay [4], 9.12%; in assay [5], 7.95%.
In the case of `COc1ccc(CNC(=O)C2CCN(Cc3ccccc3-c3ccccc3F)CC2)cc1`, the activity change, negative = inhibition in assay [1] is -6%; in assay [2], 17.1%; in assay [3], -26.6%; in assay [4], -10.4%; in assay [5], -1.79%.
For `CC(C)OCCCNC(=O)C1(C)Cn2c(cc3ccccc32)C(=O)N1Cc1cccc(F)c1` (configuration not stated), in that order: 4%, 0.036%, 5.01%, 5.5% and -0.044%.
On to `COc1ccc(-c2cc3n(n2)CC(C)(C(=O)NCc2ccccc2)N(c2cccc(OC)c2)C3=O)cc1` (configuration not stated), for which the activity change, negative = inhibition in assay [1] stood at 4.42%; in assay [2] it was 0%; in assay [3], 5.59%; in assay [4], 9.87%; in assay [5], 2.74%.
For `Cn1cccc1-c1noc(C2CCN(C(=O)COc3ccc(F)cc3)CC2)n1`, in that order: -5.12%, -6.74%, -3.81%, -10.7% and -5.5%.
For `Cn1cc(CN2CCOC[C@H](Oc3ccc(S(C)(=O)=O)cc3)C2)c2ccccc21`, in that order: -4.09%, -6.67%, -2.22%, -11.1% and -27.9%.
Taken in the same sequence, the figures for `COc1ccc(C(=O)N2CCCC3(COc4ccccc4C(=O)N3)C2)cc1` (configuration not stated) were -1.65%, 1.71%, -0.22%, -7.67% and -4.05%.
Regarding `COc1ccccc1CNC(=O)CCc1nnc2n(Cc3ccc(Cl)cc3)c(=O)c3ccccc3n12`, the activity change, negative = inhibition in assay [1] was -3.9%; in assay [2], 0%; in assay [3] it was 2.57%; in assay [4] it was 2.65%; in assay [5], -4.4%.
Taken in the same sequence, the figures for `O=C(c1nccc2ccccc12)N1CCc2c(nc(-c3ccccc3)[nH]c2=O)C1` were -7.38%, -1.27%, 0.195%, -3.68% and -9.75%.
In the case of `Clc1ccc(C2Nc3ccc(Cl)cc3C3C=CCC32)cc1` (configuration not stated), the activity change, negative = inhibition is -5.28% in assay [1]; 3.87% in assay [2]; -3.84% in assay [3]; -3.13% in assay [4]; -12.8% in assay [5].
Take `CCCn1c(=O)c2ccc(C(=O)NC3CCCCC3)cc2n2c(=O)n(CC(=O)c3ccc(OC)cc3)nc12`: the activity change, negative = inhibition turned out to be 3.11% in assay [1]; 0.215% in assay [2]; 10.2% in assay [3]; 2.29% in assay [4]; 1.3% in assay [5].
For `O=C1N[C@@H]2CCN(C(=O)c3ccc(-c4ccccc4)cc3)[C@@H]2C(=O)N1Cc1ccccc1`, in that order: -8.41%, -8.46%, -5.66%, -20.8% and -29.1%.
For `O=c1cc(OCc2ccc(F)cc2)ccn1-c1ccc(OCCN2CCCC2)cc1`, the activity change, negative = inhibition was 1.22% in assay [1]; -3.88% in assay [2]; -20.3% in assay [3]; -15.1% in assay [4]; -3.99% in assay [5].
For `CCc1ccc(C(=O)COC(=O)C(Cc2c[nH]c3ccccc23)NC(=O)c2ccc(Br)cc2)cc1` (configuration not stated), the activity change, negative = inhibition in assay [1] was -4.29%; in assay [2], -0.619%; in assay [3], -0.313%; in assay [4], -8.05%; in assay [5] it was -5.3%.
Consider `O=C(c1ccc(F)cc1)N1CCCC(c2nc(-c3ccc(F)cc3)no2)C1` (configuration not stated), for which the values for the activity change, negative = inhibition in assay [1] and in assay [3] were -5.39% and -2.35%, respectively.
Regarding `COc1cccc(N2CCN(C(=O)c3ccc4c(=O)nc5c(-c6cccc(F)c6)n[nH]n5c4c3)CC2)c1`, the activity change, negative = inhibition was -15.3% in assay [1]; 4.68% in assay [2]; -8.01% in assay [3]; -15.2% in assay [4]; -5.42% in assay [5].
For `CNC(=O)[C@@H]1C[C@@H](n2cc(CC(C)C)nn2)CN1`, in that order: -2.61%, -4.48%, -2.26%, -7.24% and -6.4%.
Turning to `C/C(=C\CCC(C)(O)c1ccc(C)cc1)C(=O)O` (configuration not stated), the activity change, negative = inhibition in assay [1] was 4.41%; in assay [2] it was 6.01%; in assay [3], 8.43%; in assay [4], -5.12%; in assay [5], 3.78%.
For `Cc1cccc(N2C(=O)CSc3c(c4ccccc4n3C)C2C(=O)NCCCOC(C)C)c1C` (configuration not stated), in that order: -5.3%, 4.08%, 2.66%, -0.759% and -2.12%.
As to `Cc1ccc(NS(=O)(=O)c2ccc3[nH]c(=O)[nH]c3c2)cc1F`, the activity change, negative = inhibition in assay [1] is -7.01%; in assay [2], -2.93%; in assay [3] it was -7.22%; in assay [4] it was -12.9%; in assay [5], -33.6%.
Regarding `CCOC(=O)c1cc2n(n1)CC(C)(C(=O)NCc1ccccc1)N(Cc1cccc(OC)c1)C2=O` (configuration not stated), the activity change, negative = inhibition in assay [1] is -3.48%; in assay [2], 3.54%; in assay [3], -0.907%; in assay [4] it was -8.11%; in assay [5] it was -7.76%.
In the case of `COC(=O)c1ccnc(-c2cc(C(=O)Nc3ccc(C4(N)CC4)cc3)ccn2)c1`, the activity change, negative = inhibition is -23.7% in assay [1]; 9.42% in assay [2]; -10.1% in assay [3]; -17.8% in assay [4]; -10.5% in assay [5].
For `COc1ccc(N(C(=O)C2CCCCC2)S(=O)(=O)c2ccc3c(c2)n(C)c(=O)n3C)cc1`, in that order: -2.66%, 2.5%, -2.02%, 6.79% and -5.44%.
